Source: article PMC12120796
These are yes or no findings as the source states them, for the method shown. In cells and extracts the contact can be indirect. Some entries that bind do so weakly or less than the wild type. Where a sequence is shown, tags or fusion partners need not be part of it.

Sequences of proteins named here, by UniProt entry; tags and fusion partners are left off.
UniProt Q92793: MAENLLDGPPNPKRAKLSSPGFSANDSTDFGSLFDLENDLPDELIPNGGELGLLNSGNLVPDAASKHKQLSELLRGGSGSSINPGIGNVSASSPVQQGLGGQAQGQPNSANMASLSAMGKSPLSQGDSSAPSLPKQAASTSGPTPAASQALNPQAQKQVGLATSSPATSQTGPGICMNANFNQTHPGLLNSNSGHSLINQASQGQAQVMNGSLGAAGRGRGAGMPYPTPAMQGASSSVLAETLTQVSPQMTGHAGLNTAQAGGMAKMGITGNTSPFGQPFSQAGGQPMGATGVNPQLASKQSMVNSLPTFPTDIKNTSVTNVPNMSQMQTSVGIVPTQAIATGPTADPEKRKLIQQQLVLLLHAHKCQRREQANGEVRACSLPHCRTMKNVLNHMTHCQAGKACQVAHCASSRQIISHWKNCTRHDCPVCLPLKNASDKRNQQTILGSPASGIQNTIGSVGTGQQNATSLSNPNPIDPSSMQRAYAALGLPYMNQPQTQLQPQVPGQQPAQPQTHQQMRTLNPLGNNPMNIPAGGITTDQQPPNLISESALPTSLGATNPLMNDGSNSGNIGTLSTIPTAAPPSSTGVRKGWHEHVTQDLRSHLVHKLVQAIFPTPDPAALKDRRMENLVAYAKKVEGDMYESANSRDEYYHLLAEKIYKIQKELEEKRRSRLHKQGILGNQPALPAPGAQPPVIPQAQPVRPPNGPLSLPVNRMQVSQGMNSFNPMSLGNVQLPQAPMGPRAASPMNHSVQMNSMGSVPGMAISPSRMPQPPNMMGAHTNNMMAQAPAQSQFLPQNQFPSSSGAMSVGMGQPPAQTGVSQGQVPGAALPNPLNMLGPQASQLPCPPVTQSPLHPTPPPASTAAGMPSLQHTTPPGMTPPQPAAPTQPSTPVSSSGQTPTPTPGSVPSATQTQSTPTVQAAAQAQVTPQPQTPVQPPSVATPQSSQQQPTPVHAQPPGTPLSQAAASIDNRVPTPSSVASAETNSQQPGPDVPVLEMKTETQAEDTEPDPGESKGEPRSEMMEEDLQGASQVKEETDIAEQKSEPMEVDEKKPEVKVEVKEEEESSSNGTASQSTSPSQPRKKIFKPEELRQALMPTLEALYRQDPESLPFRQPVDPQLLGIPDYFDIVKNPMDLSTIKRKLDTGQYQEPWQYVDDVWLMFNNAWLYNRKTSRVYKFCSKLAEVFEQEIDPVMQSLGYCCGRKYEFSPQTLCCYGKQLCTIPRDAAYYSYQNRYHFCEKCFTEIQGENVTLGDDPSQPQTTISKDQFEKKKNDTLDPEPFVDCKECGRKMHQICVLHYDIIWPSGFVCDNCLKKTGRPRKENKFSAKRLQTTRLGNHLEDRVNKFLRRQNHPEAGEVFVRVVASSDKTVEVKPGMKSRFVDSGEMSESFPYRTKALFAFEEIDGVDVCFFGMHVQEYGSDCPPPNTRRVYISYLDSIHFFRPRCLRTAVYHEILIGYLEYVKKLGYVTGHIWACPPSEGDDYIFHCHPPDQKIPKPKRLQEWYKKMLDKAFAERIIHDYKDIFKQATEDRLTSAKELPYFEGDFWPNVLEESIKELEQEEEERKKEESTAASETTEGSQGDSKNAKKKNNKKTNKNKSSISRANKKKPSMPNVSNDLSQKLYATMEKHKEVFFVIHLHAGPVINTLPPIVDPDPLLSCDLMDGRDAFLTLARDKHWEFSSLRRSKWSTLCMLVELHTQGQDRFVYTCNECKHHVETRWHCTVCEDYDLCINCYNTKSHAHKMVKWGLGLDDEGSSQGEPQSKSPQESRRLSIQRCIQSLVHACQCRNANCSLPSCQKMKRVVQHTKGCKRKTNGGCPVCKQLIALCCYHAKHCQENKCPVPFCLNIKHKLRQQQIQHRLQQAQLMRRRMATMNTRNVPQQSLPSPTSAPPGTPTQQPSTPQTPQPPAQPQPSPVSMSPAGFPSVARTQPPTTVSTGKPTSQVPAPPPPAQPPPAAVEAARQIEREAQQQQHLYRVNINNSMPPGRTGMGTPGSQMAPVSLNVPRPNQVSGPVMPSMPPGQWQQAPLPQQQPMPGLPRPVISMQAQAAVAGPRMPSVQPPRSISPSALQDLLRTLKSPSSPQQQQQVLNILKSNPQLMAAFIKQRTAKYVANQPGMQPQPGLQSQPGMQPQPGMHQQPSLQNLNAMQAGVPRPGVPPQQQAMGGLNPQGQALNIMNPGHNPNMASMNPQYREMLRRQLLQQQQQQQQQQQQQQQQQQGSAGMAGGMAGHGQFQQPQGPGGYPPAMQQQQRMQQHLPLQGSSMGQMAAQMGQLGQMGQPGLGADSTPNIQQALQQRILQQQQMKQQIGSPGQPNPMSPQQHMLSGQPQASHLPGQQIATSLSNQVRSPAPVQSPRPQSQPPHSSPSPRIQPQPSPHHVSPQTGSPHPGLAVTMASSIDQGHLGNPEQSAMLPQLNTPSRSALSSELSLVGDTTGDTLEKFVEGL
UniProt Q92830: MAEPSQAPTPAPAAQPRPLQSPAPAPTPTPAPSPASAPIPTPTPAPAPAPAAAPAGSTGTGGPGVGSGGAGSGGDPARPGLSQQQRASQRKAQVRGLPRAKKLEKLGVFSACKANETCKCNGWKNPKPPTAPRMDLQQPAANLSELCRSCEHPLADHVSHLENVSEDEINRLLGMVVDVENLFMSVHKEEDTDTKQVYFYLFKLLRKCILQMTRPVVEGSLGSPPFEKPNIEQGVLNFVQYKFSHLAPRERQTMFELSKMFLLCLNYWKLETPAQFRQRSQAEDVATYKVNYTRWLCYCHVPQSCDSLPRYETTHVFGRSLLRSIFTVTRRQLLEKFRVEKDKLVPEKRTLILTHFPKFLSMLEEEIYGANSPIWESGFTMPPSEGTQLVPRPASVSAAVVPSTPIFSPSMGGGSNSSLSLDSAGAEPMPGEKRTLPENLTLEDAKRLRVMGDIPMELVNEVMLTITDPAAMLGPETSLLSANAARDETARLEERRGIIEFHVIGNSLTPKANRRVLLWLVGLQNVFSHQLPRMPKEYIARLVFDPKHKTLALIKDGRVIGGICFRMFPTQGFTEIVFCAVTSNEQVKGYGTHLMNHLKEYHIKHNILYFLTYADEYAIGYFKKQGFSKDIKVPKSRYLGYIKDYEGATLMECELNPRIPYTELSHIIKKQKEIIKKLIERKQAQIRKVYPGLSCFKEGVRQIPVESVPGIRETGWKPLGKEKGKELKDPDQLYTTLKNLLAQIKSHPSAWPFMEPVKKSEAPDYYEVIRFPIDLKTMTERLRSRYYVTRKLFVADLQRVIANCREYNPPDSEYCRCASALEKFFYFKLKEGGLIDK
UniProt Q92831: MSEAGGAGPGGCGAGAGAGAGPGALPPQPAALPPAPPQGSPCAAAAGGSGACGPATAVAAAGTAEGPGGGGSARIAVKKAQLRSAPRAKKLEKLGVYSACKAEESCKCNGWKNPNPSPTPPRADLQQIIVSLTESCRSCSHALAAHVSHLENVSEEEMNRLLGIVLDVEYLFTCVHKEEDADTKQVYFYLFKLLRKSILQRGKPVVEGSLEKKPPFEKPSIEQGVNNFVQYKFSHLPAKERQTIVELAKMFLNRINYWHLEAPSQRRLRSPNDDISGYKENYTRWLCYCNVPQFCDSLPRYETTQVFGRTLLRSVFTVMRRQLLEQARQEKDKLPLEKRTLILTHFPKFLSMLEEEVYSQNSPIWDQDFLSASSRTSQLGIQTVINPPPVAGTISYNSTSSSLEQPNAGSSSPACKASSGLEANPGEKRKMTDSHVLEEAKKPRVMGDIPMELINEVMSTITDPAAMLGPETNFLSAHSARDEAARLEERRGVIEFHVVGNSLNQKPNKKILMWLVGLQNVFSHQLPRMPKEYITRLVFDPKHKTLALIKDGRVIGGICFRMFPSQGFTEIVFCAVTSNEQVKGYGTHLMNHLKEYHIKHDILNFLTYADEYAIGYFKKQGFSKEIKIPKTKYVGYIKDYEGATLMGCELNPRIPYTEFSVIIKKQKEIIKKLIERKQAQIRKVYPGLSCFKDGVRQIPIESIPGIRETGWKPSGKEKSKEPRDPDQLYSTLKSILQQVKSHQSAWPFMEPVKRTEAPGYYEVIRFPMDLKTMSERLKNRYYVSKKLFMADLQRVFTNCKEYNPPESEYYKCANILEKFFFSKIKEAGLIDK
UniProt Q09472: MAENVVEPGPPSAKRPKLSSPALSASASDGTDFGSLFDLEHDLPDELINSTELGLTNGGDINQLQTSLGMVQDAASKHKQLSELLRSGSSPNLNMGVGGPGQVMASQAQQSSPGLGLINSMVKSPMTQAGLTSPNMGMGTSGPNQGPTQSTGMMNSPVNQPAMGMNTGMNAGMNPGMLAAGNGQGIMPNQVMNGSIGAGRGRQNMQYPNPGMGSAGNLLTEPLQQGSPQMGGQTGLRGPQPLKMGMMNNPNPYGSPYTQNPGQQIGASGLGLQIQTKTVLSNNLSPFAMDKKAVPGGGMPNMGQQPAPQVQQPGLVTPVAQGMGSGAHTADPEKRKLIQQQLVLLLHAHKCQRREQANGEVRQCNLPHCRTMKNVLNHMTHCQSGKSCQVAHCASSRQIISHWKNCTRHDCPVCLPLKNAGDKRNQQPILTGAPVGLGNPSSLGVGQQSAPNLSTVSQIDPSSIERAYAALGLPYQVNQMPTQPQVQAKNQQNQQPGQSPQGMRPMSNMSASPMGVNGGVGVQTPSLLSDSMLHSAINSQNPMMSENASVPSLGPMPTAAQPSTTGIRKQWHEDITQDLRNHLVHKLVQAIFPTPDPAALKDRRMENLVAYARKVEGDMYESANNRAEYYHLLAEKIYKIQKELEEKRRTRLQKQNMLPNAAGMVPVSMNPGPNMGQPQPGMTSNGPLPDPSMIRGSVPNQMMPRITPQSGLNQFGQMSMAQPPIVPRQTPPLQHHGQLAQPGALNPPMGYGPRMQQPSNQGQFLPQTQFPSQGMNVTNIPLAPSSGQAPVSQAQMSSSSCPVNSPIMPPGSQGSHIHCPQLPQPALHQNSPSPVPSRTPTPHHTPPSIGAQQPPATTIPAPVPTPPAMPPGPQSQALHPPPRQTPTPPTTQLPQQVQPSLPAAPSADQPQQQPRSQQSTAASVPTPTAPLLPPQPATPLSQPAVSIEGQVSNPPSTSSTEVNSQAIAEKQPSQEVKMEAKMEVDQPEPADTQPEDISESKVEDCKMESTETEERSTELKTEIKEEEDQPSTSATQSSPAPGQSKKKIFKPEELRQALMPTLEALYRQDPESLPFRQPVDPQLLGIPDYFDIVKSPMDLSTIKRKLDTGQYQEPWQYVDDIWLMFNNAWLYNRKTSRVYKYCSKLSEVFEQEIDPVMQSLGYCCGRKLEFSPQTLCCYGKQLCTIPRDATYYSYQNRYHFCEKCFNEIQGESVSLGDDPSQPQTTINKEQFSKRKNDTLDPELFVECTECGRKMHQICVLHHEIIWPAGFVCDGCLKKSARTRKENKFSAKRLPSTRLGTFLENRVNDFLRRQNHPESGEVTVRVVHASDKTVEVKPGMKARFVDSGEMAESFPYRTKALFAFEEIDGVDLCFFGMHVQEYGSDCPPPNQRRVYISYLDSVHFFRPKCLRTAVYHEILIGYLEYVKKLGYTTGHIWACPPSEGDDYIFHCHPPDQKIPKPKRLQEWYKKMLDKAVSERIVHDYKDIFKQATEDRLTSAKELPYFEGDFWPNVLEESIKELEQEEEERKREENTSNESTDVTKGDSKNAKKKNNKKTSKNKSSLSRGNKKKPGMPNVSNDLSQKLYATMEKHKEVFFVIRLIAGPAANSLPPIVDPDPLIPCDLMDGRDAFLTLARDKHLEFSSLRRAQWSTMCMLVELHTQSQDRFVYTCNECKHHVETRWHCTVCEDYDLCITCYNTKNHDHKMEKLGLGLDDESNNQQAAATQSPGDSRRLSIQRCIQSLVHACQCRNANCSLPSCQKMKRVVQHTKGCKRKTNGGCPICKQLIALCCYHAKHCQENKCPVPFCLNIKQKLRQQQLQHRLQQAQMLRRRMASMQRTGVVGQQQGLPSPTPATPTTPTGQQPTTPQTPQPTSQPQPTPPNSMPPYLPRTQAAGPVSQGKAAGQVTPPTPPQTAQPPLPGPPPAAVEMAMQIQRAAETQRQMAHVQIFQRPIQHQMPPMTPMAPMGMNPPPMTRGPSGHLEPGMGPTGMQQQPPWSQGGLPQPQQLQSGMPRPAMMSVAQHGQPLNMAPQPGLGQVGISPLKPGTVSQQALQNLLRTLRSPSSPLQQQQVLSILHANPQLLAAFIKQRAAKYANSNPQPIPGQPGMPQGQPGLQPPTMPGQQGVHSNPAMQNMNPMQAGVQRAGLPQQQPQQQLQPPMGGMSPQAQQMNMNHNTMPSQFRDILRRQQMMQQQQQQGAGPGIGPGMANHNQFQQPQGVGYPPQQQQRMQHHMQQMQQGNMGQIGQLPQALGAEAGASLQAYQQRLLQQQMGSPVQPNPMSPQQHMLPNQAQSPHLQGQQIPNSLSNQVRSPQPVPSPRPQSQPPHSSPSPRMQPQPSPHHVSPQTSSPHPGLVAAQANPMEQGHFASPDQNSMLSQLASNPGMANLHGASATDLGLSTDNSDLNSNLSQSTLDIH

Target: T1, UDP‐glucose dehydrogenase (UGDH) (human (endogenous in human primary chondrocytes)) (UniProt O60701)
T1 sequence: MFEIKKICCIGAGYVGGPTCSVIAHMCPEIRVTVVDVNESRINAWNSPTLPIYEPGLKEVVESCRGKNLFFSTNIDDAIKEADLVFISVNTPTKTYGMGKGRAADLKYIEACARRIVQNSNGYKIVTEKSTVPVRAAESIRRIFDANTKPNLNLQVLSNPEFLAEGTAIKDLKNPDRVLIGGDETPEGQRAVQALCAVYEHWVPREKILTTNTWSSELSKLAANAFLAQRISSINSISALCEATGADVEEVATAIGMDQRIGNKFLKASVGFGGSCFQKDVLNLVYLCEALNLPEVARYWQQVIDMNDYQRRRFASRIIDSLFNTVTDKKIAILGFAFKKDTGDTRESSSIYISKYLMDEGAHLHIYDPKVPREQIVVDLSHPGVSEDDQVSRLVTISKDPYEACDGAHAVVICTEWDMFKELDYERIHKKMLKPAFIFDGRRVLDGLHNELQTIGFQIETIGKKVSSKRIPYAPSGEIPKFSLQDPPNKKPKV
Test: co-IP; IP with anti-UGDH antibody (Sino Biological, 200912-T44) and Protein A/G PLUS-Agarose from 1 mg of human primary chondrocyte lysate, 4 °C for 12 h, rabbit IgG as negative control, Western blot; cells treated with PBS, lactate (25 mM), IL-1β (10 ng/ml) or IL-1β + DCA (20 mM)

Q: For “CBP (from UniProt Q92793 1-2442) (enzyme)”, which binding is on record?
A: The binding was “no binding”.

Q: For “GCN5 (from UniProt Q92830 1-837) (enzyme)”, which binding is on record?
A: The binding was “no binding”.

Q: “PCAF (from UniProt Q92831 1-832) (enzyme)” was tested. Which binding did it give?
A: Its binding is “no binding”.

Q: How did the binding turn out when “acyltransferase P300 (from UniProt Q09472 1-2414) (enzyme)” was run?
A: The binding was “binds”.

Q: Which binding does the source give for “nuclear export receptor chromosome region maintenance 1 (CRM1) (from UniProt O14980 1-1071)” here?
A: Its binding is “binds”.

Q: “signal transducer and activator of transcription 1 (STAT1) (from UniProt P42224 1-750)” was tested. Which binding did it give?
A: The binding was “binds”.
